PMC11960969, “Mdga2 deficiency leads to an aberrant activation of BDNF/TrkB signaling that underlies autism-relevant synaptic and behavioral changes in mice” (PLOS Biology, 2025)
These are yes or no findings as the source states them, for the method shown. Binding seen in cells or lysates may run through a third protein. Some binding calls cover weakened binding; strength is not graded here. Sequences can lack the tags named with a protein.

By UniProt entry, the sequences of proteins in these tests, tags left out. Residues count along the entry.
UniProt Q16620, residues 32-822: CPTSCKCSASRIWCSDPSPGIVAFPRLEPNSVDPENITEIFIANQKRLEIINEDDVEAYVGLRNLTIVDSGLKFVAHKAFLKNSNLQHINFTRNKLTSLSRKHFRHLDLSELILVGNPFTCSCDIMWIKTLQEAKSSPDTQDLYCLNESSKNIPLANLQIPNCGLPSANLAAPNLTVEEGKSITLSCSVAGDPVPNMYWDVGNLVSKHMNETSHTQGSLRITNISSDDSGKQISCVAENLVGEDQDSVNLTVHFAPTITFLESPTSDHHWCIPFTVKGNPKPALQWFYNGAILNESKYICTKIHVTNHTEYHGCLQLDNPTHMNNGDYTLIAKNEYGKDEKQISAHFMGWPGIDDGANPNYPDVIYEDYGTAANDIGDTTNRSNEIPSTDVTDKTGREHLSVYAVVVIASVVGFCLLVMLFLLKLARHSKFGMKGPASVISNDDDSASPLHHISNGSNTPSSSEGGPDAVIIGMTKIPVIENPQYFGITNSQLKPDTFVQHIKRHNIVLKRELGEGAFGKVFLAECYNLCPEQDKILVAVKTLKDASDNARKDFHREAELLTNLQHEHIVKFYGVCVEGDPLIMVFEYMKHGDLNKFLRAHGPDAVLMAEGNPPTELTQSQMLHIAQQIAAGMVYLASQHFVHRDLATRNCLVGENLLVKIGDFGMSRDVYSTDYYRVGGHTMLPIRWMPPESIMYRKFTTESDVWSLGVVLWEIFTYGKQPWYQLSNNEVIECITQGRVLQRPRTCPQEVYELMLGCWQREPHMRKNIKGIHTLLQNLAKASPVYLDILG

B1: GFP-tagged MDGA2 lacking the C-terminal region (aa 834-921) of the MAM domain (MDGA2-ΔM2) (domain or fragment, UniProt Q7Z553)
chain: PPTVRIVHSGLACNIEEERYSERVYTIREGETLELTCLVTGHPRPQIRWTKTAGSASDRFQDSSVFNETLRITNIQRHQGGRYYCKAENGLGSPAIKSIRVDVYYLDDPVVTVHQSIGEAKEQFYYERTVFLRCVANSNPPVRYSWRRGQEVLLQGSDKGVEIYEPFFTQGETKILKLKNLRPQDYANYSCIASVRNVCNIPDKMVSFRLSNKTASPSIKLLVDDPIVVNPGEAITLVCVTTGGEPAPSLTWVRSFGTLPEKTVLNGGTLTIPAITSDDAGTYSCIANNNVGNPAKKSTNIIVRALKKGRFWITPDPYHKDDNIQIGREVKISCQVEAVPSEELTFSWFKNGRPLRSSERMVITQTDPDVSPGTTNLDIIDLKFTDFGTYTCVASLKGGGISDISIDVNISSSTVPPNLTVPQEKSPLVTREGDTIELQCQVTGKPKPIILWSRADKEVAMPDGSMQMESYDGTLRIVNVSREMSGMYRCQTSQYNGFNVKPREALVQLIVQYPPAVEPAFLEIRQGQDRSVTMSCRVLRAYPIRVLTYEWRLGNKLLRTGQFDSQEYTEYAVKSLSNENYGVYNCSIINEAGAGRCSFLVTGKAYAPEFYYDTYNPVWQNRHRVYSYSLQWTQMNPDAVDRIVAYRLGIRQAGQQRWWEQEIKINGNIQKGELITYNLTELIKPEAYEVRLTPLTKFGEGDSTIRVIKYSAPVNPHLREFHCGFEDGNICLFTQDDTDNFDWTKQSTATRNTKYTPNTGPNADRSGSKEGFYMYIETSRPRLEGEKARLLSPVFSIAPKNPYGPTNTQDLATKNSVD
B2: GFP-tagged MDGA2 lacking the entire MAM domain (MDGA2-ΔMAM-GFP) (domain or fragment, UniProt Q7Z553)
chain: PPTVRIVHSGLACNIEEERYSERVYTIREGETLELTCLVTGHPRPQIRWTKTAGSASDRFQDSSVFNETLRITNIQRHQGGRYYCKAENGLGSPAIKSIRVDVYYLDDPVVTVHQSIGEAKEQFYYERTVFLRCVANSNPPVRYSWRRGQEVLLQGSDKGVEIYEPFFTQGETKILKLKNLRPQDYANYSCIASVRNVCNIPDKMVSFRLSNKTASPSIKLLVDDPIVVNPGEAITLVCVTTGGEPAPSLTWVRSFGTLPEKTVLNGGTLTIPAITSDDAGTYSCIANNNVGNPAKKSTNIIVRALKKGRFWITPDPYHKDDNIQIGREVKISCQVEAVPSEELTFSWFKNGRPLRSSERMVITQTDPDVSPGTTNLDIIDLKFTDFGTYTCVASLKGGGISDISIDVNISSSTVPPNLTVPQEKSPLVTREGDTIELQCQVTGKPKPIILWSRADKEVAMPDGSMQMESYDGTLRIVNVSREMSGMYRCQTSQYNGFNVKPREALVQLIVQYPPAVEPAFLEIRQGQDRSVTMSCRVLRAYPIRVLTYEWRLGNKLLRTGQFDSQEYTEYAVKSLSNENYGVYNCSIINEAGAGRCSFLVTGKAYAPEFYYDTYNPVWQNRHRVYSYSLQWTQMNPDAVDRIVAYRLGIRQAGQQRWWEQEIKINGNIQKGELITYNLTELIKPEAYEVRLTPLTKFGEGDSTIRVIKYSAPVNPHLREQDLATKNSVD
B3: GFP-tagged MDGA2 lacking the N-terminal region (aa 746-833) of the MAM domain (MDGA2-ΔM1) (domain or fragment, UniProt Q7Z553)
chain: PPTVRIVHSGLACNIEEERYSERVYTIREGETLELTCLVTGHPRPQIRWTKTAGSASDRFQDSSVFNETLRITNIQRHQGGRYYCKAENGLGSPAIKSIRVDVYYLDDPVVTVHQSIGEAKEQFYYERTVFLRCVANSNPPVRYSWRRGQEVLLQGSDKGVEIYEPFFTQGETKILKLKNLRPQDYANYSCIASVRNVCNIPDKMVSFRLSNKTASPSIKLLVDDPIVVNPGEAITLVCVTTGGEPAPSLTWVRSFGTLPEKTVLNGGTLTIPAITSDDAGTYSCIANNNVGNPAKKSTNIIVRALKKGRFWITPDPYHKDDNIQIGREVKISCQVEAVPSEELTFSWFKNGRPLRSSERMVITQTDPDVSPGTTNLDIIDLKFTDFGTYTCVASLKGGGISDISIDVNISSSTVPPNLTVPQEKSPLVTREGDTIELQCQVTGKPKPIILWSRADKEVAMPDGSMQMESYDGTLRIVNVSREMSGMYRCQTSQYNGFNVKPREALVQLIVQYPPAVEPAFLEIRQGQDRSVTMSCRVLRAYPIRVLTYEWRLGNKLLRTGQFDSQEYTEYAVKSLSNENYGVYNCSIINEAGAGRCSFLVTGKAYAPEFYYDTYNPVWQNRHRVYSYSLQWTQMNPDAVDRIVAYRLGIRQAGQQRWWEQEIKINGNIQKGELITYNLTELIKPEAYEVRLTPLTKFGEGDSTIRVIKYSAPVNPHLREAYCFSFFYHMYGQHIGVLNVYLRLKGQTTIENPLWSSSGNKGQRWNEAHVNIYPITSFQLIFEGIRGPGIEGDIAIDDVSIAEGECAKQDLATKNSVD

Target: Flag-tagged full-length human TrkB (TrkB-Flag) (human) (UniProt Q16620)
Assay: co-IP; HEK293T cells co-transfected with Flag-tagged TrkB constructs and GFP-tagged MDGA2 constructs; lysates IP with control IgG, anti-Flag or anti-GFP, immunoblot

| binding | Binder |
| --- | --- |
| binds | B1 |
| no binding | B2 |
| no binding | B3 |
